# The supplement of paper PMC4604168 (melanoma cell lines)
# The list shows a part of the results. Many values rest on one well or one pass, so single values are uncertain.
# Tested on: MeWo
# Experiment: cell count relative to DMSO control; melanoma cells; higher = more viable cells
# Conditions: library dose: standard library concentration; 72 h
# 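Further: cells treated in 1,536-well plates, then fixed and DAPI-stained, with nuclei counted from automated high-throughput microscope images.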
row,SMILES,cell count [%]
1,"NC1(c2ccc(-c3nc4ccn5c(=O)[nH]nc5c4cc3-c3ccccc3)cc2)CCC1 + OCCn1cc(-c2cnc3nnn(Cc4ccc5ncccc5c4)c3n2)cn1 [PF04217903] (first compound 2 µM, partner dose 5 µM)",86
2,"C=C(c1ccc(C(=O)O)cc1)c1cc2c(cc1C)C(C)(C)CCC2(C)C [Bexarotene] + C#Cc1cccc(Nc2ncnc3cc(OCCOC)c(OCCOC)cc23)c1 [erlotinib] (first compound 10 µM, partner dose 4 µM)",71.6
3,"CS(=O)(=O)c1ccc(C(=O)Nc2ccc(Cl)c(-c3ccccn3)c2)c(Cl)c1 [vismodegib] + CC(C)CCN1c2nc(Nc3cc(F)c(O)c(F)c3)ncc2N(C)C(=O)C1C [BID1870] (first compound 5 µM, partner dose 1 µM)",76.4
4,"NC1(c2ccc(-c3nc4ccn5c(=O)[nH]nc5c4cc3-c3ccccc3)cc2)CCC1 + COc1cc2c(Oc3ccc4[nH]c(C)cc4c3F)ncnc2cc1OCCCN1CCCC1 [cediranib] (first compound 2 µM, partner dose 2 µM)",79.9
5,"C=C(c1ccc(C(=O)O)cc1)c1cc2c(cc1C)C(C)(C)CCC2(C)C [Bexarotene] + COc1ccc2c(c1)CCC1C2CCC2(C)C(NCCCCCCN3C(=O)C=CC3=O)CCC12 [U73122] (first compound 10 µM, partner dose 2 µM)",59.3
6,"NC1(c2ccc(-c3nc4ccn5c(=O)[nH]nc5c4cc3-c3ccccc3)cc2)CCC1 + CS(=O)(=O)CCNCc1ccc(-c2ccc3ncnc(Nc4ccc(OCc5cccc(F)c5)c(Cl)c4)c3c2)o1 [lapatinib] (first compound 2 µM, partner dose 4 µM)",75.9
7,"CS(=O)(=O)c1ccc(C(=O)Nc2ccc(Cl)c(-c3ccccn3)c2)c(Cl)c1 [vismodegib] + COCC[n+]1c2c(n(Cc3cnccn3)c1C)C(=O)c1ccccc1C2=O [YM155] (first compound 5 µM, partner dose 0.002 µM)",46.4
8,"CCCS(=O)(=O)Nc1ccc(F)c(C(=O)c2c[nH]c3ncc(Cl)cc23)c1F + CC(=O)c1c(C)c2cnc(Nc3ccc(N4CCNCC4)cn3)nc2n(C2CCCC2)c1=O [palbociclib] (first compound 0.4 µM, partner dose 0.2 µM)",54.4
9,"C=C(c1ccc(C(=O)O)cc1)c1cc2c(cc1C)C(C)(C)CCC2(C)C [Bexarotene] + O=C(O)C(=O)Nc1sc2c(c1C(=O)O)CCNC2 [TCS401] (first compound 10 µM, partner dose 8.33333 µM)",94.8
10,"CCCS(=O)(=O)Nc1ccc(F)c(C(=O)c2c[nH]c3ncc(Cl)cc23)c1F + Nc1nc(F)nc2c1ncn2[C@@H]1O[C@H](CO)[C@@H](O)[C@@H]1O [fludarabine] (first compound 0.4 µM, partner dose 1 µM)",104
11,"NC1(c2ccc(-c3nc4ccn5c(=O)[nH]nc5c4cc3-c3ccccc3)cc2)CCC1 + COc1ccc2c(c1)CCC1C2CCC2(C)C(NCCCCCCN3C(=O)C=CC3=O)CCC12 [U73122] (first compound 2 µM, partner dose 2 µM)",54.8
12,"CS(=O)(=O)c1ccc(C(=O)Nc2ccc(Cl)c(-c3ccccn3)c2)c(Cl)c1 [vismodegib] + COc1cc(N2CCC(N3CCN(C)CC3)CC2)ccc1Nc1ncc(Cl)c(Nc2ccccc2S(=O)(=O)C(C)C)n1 [NVP-TAE684] (first compound 5 µM, partner dose 0.4 µM)",62.4
13,"C=C(c1ccc(C(=O)O)cc1)c1cc2c(cc1C)C(C)(C)CCC2(C)C [Bexarotene] + O=c1cc(-c2cccc3c2Sc2ccccc2S3)oc(N2CCOCC2)c1 [KU55933] (first compound 10 µM, partner dose 5 µM)",98.2
14,"CS(=O)(=O)c1ccc(C(=O)Nc2ccc(Cl)c(-c3ccccn3)c2)c(Cl)c1 [vismodegib] + OCc1c[nH]c2ccccc12 [Indole-3-carbinol] (first compound 5 µM, partner dose 4 µM)",92.5
15,"CN(c1ncccc1CNc1nc(Nc2ccc3c(c2)CC(=O)N3)ncc1C(F)(F)F)S(C)(=O)=O + CC1(C)NC(=O)N(c2ccc([N+](=O)[O-])c(C(F)(F)F)c2)C1=O [nilutamide] (first compound 0.4 µM, partner dose 5 µM)",95.1
16,"CS(=O)(=O)c1ccc(C(=O)Nc2ccc(Cl)c(-c3ccccn3)c2)c(Cl)c1 [vismodegib] + NCC(=O)Nc1ccc(-n2nc(C(F)(F)F)cc2-c2ccc3c(ccc4ccccc43)c2)cc1 [OSU03012] (first compound 5 µM, partner dose 5 µM)",100
17,"CS(=O)(=O)c1ccc(C(=O)Nc2ccc(Cl)c(-c3ccccn3)c2)c(Cl)c1 [vismodegib] + C[C@]1(c2nc3c(C(N)=O)cccc3[nH]2)CCCN1 [Veliparib] (first compound 5 µM, partner dose 7 µM)",83
18,"NC1(c2ccc(-c3nc4ccn5c(=O)[nH]nc5c4cc3-c3ccccc3)cc2)CCC1 + C=CCn1c(=O)c2cnc(Nc3ccc(N4CCN(C)CC4)cc3)nc2n1-c1cccc(C(C)(C)O)n1 [MK1775] (first compound 2 µM, partner dose 0.1 µM)",64.2
